The supplement of paper PMC6206098
± gives the uncertainty stated by the source. The sequences are guide strands of siRNAs; only the seed at positions 2 to 7 varies.

Tests used:
[1] = tested on: 3LL; experiment: cell viability relative to siNT1 control; higher = less toxic; conditions: concentration: 10 nM; 96 h; Mus musculus;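 also: Luminescence-based viability of cells reverse transfected in 384-well plates with lipid-complexed siRNAs built on a non-toxic 19mer backbone whose passenger strand carries 2′-O-methyl groups at positions 1 and 2, triplicates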
[2] = tested on: HeyA8; experiment: cell viability relative to lipid-only control; HeyA8 human ovarian and H460 human lung cancer; M565 mouse liver and 3LL mouse lung cancer; siNT1 is a non-toxic control siRNA; higher = less toxic; conditions: concentration: 10 nM; 96 h; Homo sapiens
Description: (§1)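 Arrayed screen of 4096 siRNA duplexes, each carrying one of all possible 6mer seeds at guide-strand positions 2-7 in a fixed neutral 19mer scaffold (constant flanks: U at position 1, then ACAUGUAAACCA, plus a 3' AA overhang). The passenger strand is 2'-O-methylated at positions 1-2 so only the guide strand loads into RISC. Duplexes were reverse-transfected at 10 nM with RNAiMAX in triplicate in 384-well plates; viability was read by CellTiter-Glo ATP content 96 h after transfection. Values are % viability normalised to lipid-only wells (HeyA8, H460, M565) or to siNT1 (3LL).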

[3] = tested on: H460; experiment: as above; conditions: concentration: 10 nM; 96 h; Homo sapiens
Description: as §1

[4] = tested on: M565; experiment: as above; conditions: concentration: 10 nM; 96 h; Mus musculus
Description: as §1
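For cell viability relative to lipid-only control in this document: reverse lipid transfection in 384-well plates, in triplicate, of duplexes on a non-toxic 19mer backbone with passenger strand 2′-O-methylated at positions 1 and 2, luminescence viability read-out.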

Row | Sequence | cell viability [1] [%] | cell viability [2] [%] | cell viability [3] [%] | cell viability [4] [%]
1 | UACGAUAACAUGUAAACCAAA | 95.8 ± 19 | 91.7 ± 8.5 | 83.7 ± 13 | 67.5 ± 5.3
2 | UAUGCUCACAUGUAAACCAAA | 52.5 ± 11 | 70.8 ± 2.6 | 72.1 ± 8.7 | 51.9 ± 19
3 | UAGAGCCACAUGUAAACCAAA | 4.98 ± 0.59 | 27.7 ± 0.81 | 48.1 ± 2.3 | 9.32 ± 4.5
4 | UUGGAGAACAUGUAAACCAAA | 29.5 ± 5.1 | 67.8 ± 2.4 | 60.5 ± 4.1 | 33.1 ± 9
5 | UCUAGGAACAUGUAAACCAAA | 95.7 ± 15 | 87.2 ± 9.8 | 49.9 ± 4.5 | 87.5 ± 14
6 | UUCCCCCACAUGUAAACCAAA | 30.4 ± 5.3 | 38.5 ± 2 | 43.5 ± 2.7 | 32.6 ± 5.1
7 | UUGGCAGACAUGUAAACCAAA | 19.3 ± 7.1 | 58.1 ± 6.9 | 92.4 ± 2.5 | 34.2 ± 3.3
8 | UUACGUGACAUGUAAACCAAA | 108 ± 7 | 105 ± 1.9 | 108 ± 6.3 | 117 ± 12
9 | UGUGGCCACAUGUAAACCAAA | 16.9 ± 12 | 36 ± 5.5 | 27.8 ± 2.4 | 8.78 ± 3.3
10 | UGAAAAGACAUGUAAACCAAA | 97.5 ± 16 | 99.8 ± 9.3 | 73.2 ± 17 | 71.7 ± 7.3
11 | UUUGAUUACAUGUAAACCAAA | 91.3 ± 2.4 | 86.8 ± 2.4 | 92.8 ± 13 | 93.3 ± 6.7
12 | UGCAGAUACAUGUAAACCAAA | 33.4 ± 6.1 | 30.6 ± 4.4 | 44 ± 4.9 | 20.6 ± 5.6
13 | UCGAAGUACAUGUAAACCAAA | 83.8 ± 17 | 63.5 ± 8.7 | 60.2 ± 4.8 | 54.1 ± 5.3
14 | UUGCCCGACAUGUAAACCAAA | 43.5 ± 6.2 | 96 ± 5.7 | 76.4 ± 5.8 | 49.4 ± 7.4
15 | UAUAGCGACAUGUAAACCAAA | 113 ± 18 | 97 ± 11 | 66.2 ± 2.4 | 96.4 ± 8.8
16 | UAUACCCACAUGUAAACCAAA | 41.3 ± 2.9 | 45.3 ± 0.35 | 42.9 ± 2.2 | 48.9 ± 12
17 | UGGGGAAACAUGUAAACCAAA | 55.9 ± 48 | 20 ± 3.3 | 60 ± 4.2 | 39.1 ± 5.4
18 | UAUGUCAACAUGUAAACCAAA | 94.3 ± 11 | 96.1 ± 7.9 | 64.6 ± 3.6 | 91.1 ± 21
19 | UAUGGUAACAUGUAAACCAAA | 113 ± 11 | 94 ± 6.3 | 86.5 ± 15 | 72.7 ± 15

Row | Sequence | cell viability [1] [%] | cell viability [2] [%] | cell viability [3] [%] | cell viability [4] [%]
20 | UGAGACCACAUGUAAACCAAA | 16.2 ± 3.8 | 47.3 ± 5.3 | 27.6 ± 3.2 | 6.8 ± 3.4
21 | UUACACCACAUGUAAACCAAA | 22.8 ± 2.6 | 16.5 ± 2.9 | 18.1 ± 1.4 | 32.7 ± 8.6
22 | UGAACAGACAUGUAAACCAAA | 91.3 ± 18 | 72.2 ± 5.6 | 74 ± 12 | 54.6 ± 1.9
23 | UUAGAAUACAUGUAAACCAAA | 70.5 ± 3.4 | 81.3 ± 4.8 | 70.6 ± 8.6 | 109 ± 7.1
24 | UGCCCCGACAUGUAAACCAAA | 50 ± 14 | 75.3 ± 3 | 58.4 ± 3.8 | 60.3 ± 3.2
25 | UAGAACAACAUGUAAACCAAA | 81.5 ± 1.9 | 89.8 ± 6 | 88.1 ± 12 | 78.8 ± 5.3
26 | UAUUAGUACAUGUAAACCAAA | 111 ± 24 | 83 ± 4.2 | 69.6 ± 5.1 | 85.6 ± 8.9
27 | UUGUGCUACAUGUAAACCAAA | 65.3 ± 12 | 54.5 ± 3.6 | 73.2 ± 7.9 | 94.4 ± 6.9
28 | UGAGGUUACAUGUAAACCAAA | 95.3 ± 8.6 | 55 ± 4 | 50.2 ± 6.2 | 14.3 ± 3.4
29 | UCCACCAACAUGUAAACCAAA | 102 ± 11 | 79.9 ± 7.8 | 55.8 ± 6.3 | 50.7 ± 15
30 | UAUAUUGACAUGUAAACCAAA | 106 ± 18 | 93.4 ± 8.6 | 68.1 ± 5.6 | 77.5 ± 7.2
31 | UUCGAUUACAUGUAAACCAAA | 108 ± 19 | 96.8 ± 12 | 81.6 ± 15 | 77.9 ± 16
32 | UUACUCGACAUGUAAACCAAA | 85.1 ± 8 | 82 ± 7 | 88.3 ± 3.3 | 35.4 ± 4.7
33 | UGACCAUACAUGUAAACCAAA | 54.1 ± 6.8 | 66.6 ± 3.4 | 52.3 ± 4.9 | 4.95 ± 0.57
34 | UGACUAAACAUGUAAACCAAA | 87.8 ± 9.5 | 90.6 ± 4.9 | 73.2 ± 7 | 74.8 ± 14
35 | UAGGAACACAUGUAAACCAAA | 40.4 ± 6.4 | 57.3 ± 8.7 | 80.1 ± 6.3 | 30.6 ± 1.2
36 | UAAUAGAACAUGUAAACCAAA | 119 ± 17 | 95.8 ± 4.2 | 80.9 ± 3.7 | 95.2 ± 12
37 | UGACUUUACAUGUAAACCAAA | 76.7 ± 13 | 57 ± 2.8 | 47.8 ± 6.1 | 94.6 ± 8
38 | UACUAGAACAUGUAAACCAAA | 100 ± 15 | 82.2 ± 4.8 | 64.3 ± 9.4 | 79.2 ± 12

Row | Sequence | cell viability [1] [%] | cell viability [2] [%] | cell viability [3] [%] | cell viability [4] [%]
39 | UGUUAUAACAUGUAAACCAAA | 88.2 ± 8.5 | 91.7 ± 7.8 | 85.5 ± 16 | 52.3 ± 18
40 | UACCAAUACAUGUAAACCAAA | 85.4 ± 7.2 | 84.4 ± 13 | 62.5 ± 8 | 52.5 ± 15
41 | UCAUCUCACAUGUAAACCAAA | 81.4 ± 15 | 27.6 ± 2.4 | 34.6 ± 4.1 | 41.7 ± 7
42 | UGCUGGGACAUGUAAACCAAA | 9.51 ± 3.1 | 3.77 ± 0.95 | 12.1 ± 1.2 | 6.46 ± 6.5
43 | UUCAGAGACAUGUAAACCAAA | 94.7 ± 17 | 72.6 ± 8.6 | 54.5 ± 6 | 38.6 ± 6.4
44 | UAAGUCUACAUGUAAACCAAA | 59.3 ± 10 | 56.7 ± 5.3 | 75.2 ± 15 | 36 ± 4.5
45 | UUCCCCUACAUGUAAACCAAA | 46.2 ± 12 | 66.9 ± 9.8 | 65.2 ± 9.1 | 23.2 ± 1.8
46 | UGUAAGAACAUGUAAACCAAA | 92.2 ± 4.3 | 64 ± 1.6 | 57.7 ± 6.8 | 86 ± 7.6
47 | UGUCCAUACAUGUAAACCAAA | 34.1 ± 3.6 | 54.5 ± 8.3 | 49.6 ± 6.2 | 21.1 ± 5.2
48 | UCCCGAUACAUGUAAACCAAA | 106 ± 22 | 69.8 ± 9.3 | 83.1 ± 12 | 69.2 ± 7.1
49 | UCGUCUCACAUGUAAACCAAA | 42.3 ± 4.8 | 29.7 ± 1.9 | 66.6 ± 4.2 | 23.9 ± 2.2
50 | UUAUCUCACAUGUAAACCAAA | 33.1 ± 3.5 | 77.6 ± 4.8 | 82.7 ± 6.6 | 56.9 ± 13
51 | UUAAGCUACAUGUAAACCAAA | 35 ± 5.5 | 73.9 ± 6.9 | 59.1 ± 6.5 | 41.1 ± 4.2
52 | UAUCUAAACAUGUAAACCAAA | 117 ± 15 | 104 ± 13 | 49.2 ± 2.9 | 104 ± 8.4
53 | UGCUCGAACAUGUAAACCAAA | 81.9 ± 14 | 65.6 ± 8.4 | 57 ± 0.9 | 73.5 ± 7.5
54 | UCCAGAGACAUGUAAACCAAA | 103 ± 16 | 61.2 ± 2.4 | 74.5 ± 14 | 41.5 ± 8.1
55 | UAGCUUAACAUGUAAACCAAA | 87.8 ± 12 | 84.2 ± 11 | 81.8 ± 24 | 75.8 ± 11
56 | UGCAGGUACAUGUAAACCAAA | 23.8 ± 11 | 4.78 ± 0.83 | 11.1 ± 1.1 | 19.2 ± 2.1
57 | UCGUCUUACAUGUAAACCAAA | 85.9 ± 16 | 65.4 ± 2.2 | 75.7 ± 9.1 | 49.8 ± 8.5
